Data reported in the supplement of paper PMC11383711.
The other results are listed elsewhere or left out. Binding of human antibodies (heavy:light variable regions, tested as scFv in one mRNA-display pool) to influenza hemagglutinin, with or without the stem antibody CR9114 bound first. Score = (mean enrichment − median) / interquartile range of that screen; higher = more enriched, 0 = typical non-binder. Active = above the paper's cut-off per screen: stems 28; unblocked H1 Solomon Islands 5, H1 Michigan 3, H3 5, H5 19, H7 2.85, both B 5; blocked 9, 7, H5 10, H7 10, B Phuket 10, B Lee 11.5. Scores are scaled within each screen and are no affinities; replicates correlate at about 0.6 to 0.9, and antibodies rare in the pool are noisier.

B1: 3C11 (protein)
chain 1: QVQLVQSGAEVKETGESLNISCKVSGNNFPSYYISWVRQMPGNGLEWMGRIDPSDSDTNYRPSFQGHVTISADKSTSTAYLQWRSLKASDTAMYYCARRATYYYGSGSYFDAFDIWGQGTMVTVSS
chain 2: EIVMTQSPLTLPVTPGAPASISCRSSQSLLHSDGYNYLDWYLQKPGQSPQLLIYLGSHRASGVPDRFSGSGSGTDFTLKISRVEAEDVGVYYCMQALQTPDFGQGTRLEIK
B2: C7-3-C02 (protein)
chain 1: QVQLQESGPGLVKPSETLSLTCNVSGDSVSSGNYYWSWIRQPPGKALEWIGYIYNRGRTKYNSALKSRVTISEDTANNQFSLRLTSVTAADTAIYYCARDNVVSLGRFGEFALYIDYWGRGTLVTVS
chain 2: DIQMTQSPSSLSASVGDRVTITCRASQSINTYLNWYQQKPGAAPKLLIYGASTLQSGVPSRFSGGGSGTDFTLTISSLQPDDFATYHCQQSYGIPLTFGQGTRLEIK
B3: R95-2H10 (protein)
chain 1: EVQLVASGGALGQPDRSLRLSCAASGFIFEEYALHWVRQAPGKGLEWVSNVSWNSGYRAYADSVKGRFTISRDNAEKSLSLQMNSVRREDTAFYYCAKDRAGHLGSGSYFDSWGQGTLVTVSS
chain 2: SYELTQPPSVSVAPGQTARIPCGGNNIGSKSVHWYQQKPGQAPVLVVYDDSDRPSGIPERFSGSNSGNTATLTISRVEAGDEADYYCQVWDGYSDPLFVFGTGTKV
B4: R95-2G10 (protein)
chain 1: EVQLVESGGGVVHPGGSLRLSCAASGFTFSSYAMHWVRQAPGKGLEGVAFIKYDGTNKYYADSLKGRFTISRDNSKNTLYLQMNSLRADDTAVYYCAKAHNAAVAGLAEYFEHWGQGTLVTVSS
chain 2: SYELTQPPSVSVAPGQTARITCGGNNIGSKNVHWYQQKPGQAPVLVVHDDSDRPSGIPERFSGSNSGNTATLTISRVEAGDEADYYCQVWDRHSDHFWVFGGGTKLTVL
B5: AG2-B01 (protein)
chain 1: VQLVESGGGLIQPGGSLRLSCAVSGFGVSSKYMSWVRQTPGKRLEWVSIIYAGGNTYYGGSLRGRFTISRDTVKNIVFLDMKSLRGEDTAVYYCARGLSNVYPNTFDLWGQGTLVTVSS
chain 2: DIVMTQSPFSLPVTPGEPAFISCRSSQSLLHTDGYNYVDWYLQRPGQSPQLLIYLASYRASGVPDRFSGSGSGTDFTLRISRVEADDVGIYYCMQPLQAPTFGQGTRLEIK
B6: K77-2F02 (protein)
chain 1: EVQLVESGGVVVQPGGSVRLSCAASGFTFDDYAMHWVRQAPGKSLEWVSLISWDGGNTYYADSVRARFTISRDNDKNSLYLQINSSRPEDTALYYCARDQGSSWYSGKLGIDYWGQGALVTVSS
chain 2: DIVMTQTPLSLSVTPGQPASISCKSSHSLLHSDGKTYLYWYLQKPGQSPHLLIYEVSSRFSGVPDRFSGSGSGTDFTLKISRVEAEDVGVYYCMQGMHVPRLTFGGGTKVEIK

Legend:
Assay in all cases: mRNA display binding score; higher = more enriched on the antigen
[1] = target: Influenza A H1N1 A/Michigan/45/2015 hemagglutinin ectodomain
Method: (§1)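 A pool of natively paired antibodies, displayed as scFv on mRNA, was selected once on antigen-coated beads and sequenced before and after; two replicates.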

[2] = target: Influenza A H1N1 A/Solomon Islands/3/2006 hemagglutinin ectodomain
Method: as §1

[3] = target: Influenza A H3N2 A/Singapore/INFIMH-16-0019/2016 hemagglutinin ectodomain; details: antigen blocked with: nothing
Method: as §1

[4] = target: Influenza A H5N1 A/Qinghai/1A/2005 hemagglutinin ectodomain
Method: as §1

[5] = target: Influenza A H7N9 A/Shanghai/2/2013 hemagglutinin ectodomain
Method: as §1

[6] = target: Influenza B/Lee/1940 hemagglutinin ectodomain
Method: as §1

[7] = target: Influenza B/Phuket/3073/2013 hemagglutinin ectodomain
Method: as §1

[8] = antigen blocked with: 2 µM CR9114 IgG

Row | Binder | mRNA display binding score [1, 8] | mRNA display binding score ([1]; antigen blocked with: nothing) | mRNA display binding score [2, 8] | mRNA display binding score ([2]; antigen blocked with: nothing) | mRNA display binding score [3] | mRNA display binding score [4, 8] | mRNA display binding score ([4]; antigen blocked with: nothing) | mRNA display binding score [5, 8] | mRNA display binding score ([5]; antigen blocked with: nothing) | mRNA display binding score [6, 8] | mRNA display binding score ([6]; antigen blocked with: nothing) | mRNA display binding score [7, 8] | mRNA display binding score ([7]; antigen blocked with: nothing)
1 | B1 | inactive: 0.829 | inactive: -0.0543 | inactive: 0.229 | inactive: -0.375 | inactive: -0.433 | active: 26.1 | active: 49.1 | inactive: 0.13 | inactive: 0.492 | inactive: -0.827 | inactive: -0.316 | inactive: -0.308 | inactive: -0.00616
2 | B2 | active: 32.9 | inactive: 0.794 | inactive: 4.76 | inactive: 4 | inactive: -0.206 | active: 20.2 | inactive: 18.7 | inactive: -0.0833 | inactive: -0.32 | inactive: 1.02 | inactive: -0.211 | inactive: -0.407 | inactive: -0.013
3 | B3 | inactive: -0.486 | inactive: -0.449 | inactive: -0.534 | inactive: -0.415 | inactive: 0.101 | inactive: -0.711 | inactive: -0.377 | inactive: -0.412 | inactive: -0.492 | inactive: -0.296 | inactive: -0.404 | inactive: -0.527 | inactive: -0.377
4 | B4 | inactive: -0.0524 | inactive: -0.626 | inactive: -0.179 | inactive: -0.167 | inactive: -0.448 | inactive: 0.884 | inactive: 13.5 | inactive: -0.785 | inactive: -0.492 | inactive: 0.912 | active: 67.7 | inactive: 5.47 | active: 29.5
5 | B5 | inactive: 0.0427 | inactive: 1.81 | inactive: 0.663 | inactive: 0.937 | active: 5.5 | inactive: 2.43 | inactive: 2.7 | inactive: 3.53 | inactive: 2.79 | inactive: 4.19 | inactive: 0.666 | inactive: 6.16 | inactive: 1.24
6 | B6 | inactive: 0.269 | inactive: 0.85 | inactive: 0.379 | inactive: 0.658 | inactive: 0.634 | inactive: 0.0267 | inactive: 0.0359 | inactive: 1.31 | inactive: 1.15 | inactive: -0.317 | inactive: -0.0443 | inactive: -0.222 | inactive: -0.0517
